Results from patent US10233201B2, “Class of HDAC inhibitors expands the renal progenitor cells population and improves the rate of recovery from acute kidney injury” (University of Pittsburgh—Of the Commonwealth System of …, priority 2012, dated 2019).

System: PTC-DTR mice, DT-induced AKI

COC(=O)CCCSc1ccccc1 [UPHD-00025, methyl 4-(phenylsulfanyl) butanoate]
overt toxicity in treated PTC-DTR mice (data not shown): no overt signs of toxicity | increase in the rate of renal recovery (mouse, in vivo): approximately 30% | reduction in peak BUN (mouse, in vivo): 30%
